Measured values: paper PMC10256215
These are yes or no findings as the source states them, for the method shown. Binding seen in cells or lysates may run through a third protein. Some entries that bind do so weakly or less than the wild type. Tags and fused reporters may be left off the sequences shown. Values belong to the binder of their own block, whether it stands above or below them.

The chains behind the UniProt entries cited, without tags or fusion partners.
UniProt P13164: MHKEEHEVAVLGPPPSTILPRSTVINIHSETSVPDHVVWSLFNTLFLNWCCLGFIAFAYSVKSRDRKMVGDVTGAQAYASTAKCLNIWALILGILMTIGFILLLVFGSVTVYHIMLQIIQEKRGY

Molecular target: HA-tagged IFITM1 (human) (UniProt P13164)
Assay: co-IP; 293T cells co-transfected for 24 h with FLAG- and HA-tagged constructs; IP with anti-FLAG, anti-HA or control IgG; immunoblot with anti-FLAG and anti-HA

binding: no binding
B1: FLAG-tagged CERT (protein, UniProt Q9Y5P4 1-624)
chain: MSDNQSWNSSGSEEDPETESGPPVERCGVLSKWTNYIHGWQDRWVVLKNNALSYYKSEDETEYGCRGSICLSKAVITPHDFDECRFDISVNDSVWYLRAQDPDHRQQWIDAIEQHKTESGYGSESSLRRHGSMVSLVSGASGYSATSTSSFKKGHSLREKLAEMETFRDILCRQVDTLQKYFDACADAVSKDELQRDKVVEDDEDDFPTTRSDGDFLHSTNGNKEKLFPHVTPKGINGIDFKGEAITFKATTAGILATLSHCIELMVKREDSWQKRLDKETEKKRRTEEAYKNAMTELKKKSHFGGPDYEEGPNSLINEEEFFDAVEAALDRQDKIEEQSQSEKVRLHWPTSLPSGDAFSSVGTHRFVQKPYSRSSSMSSIDLVSASDDVHRFSSQVEEMVQNHMTYSLQDVGGDANWQLVVEEGEMKVYRREVEENGIVLDPLKATHAVKGVTGHEVCNYFWNVDVRNDWETTIENFHVVETLADNAIIIYQTHKRVWPASQRDVLYLSVIRKIPALTENDPETWIVCNFSVDHDSAPLNNRCVRAKINVAMICQTLVSPPEGNQEISRDNILCKITYVANVNPGGWAPASVLRAVAKREYPKFLKRFTSYVQEKTAGKPILF

binding: binds
B2: FLAG-tagged OSBP (protein, UniProt P22059 1-807)
chain: MAATELRGVVGPGPAAIAALGGGGAGPPVVGGGGGRGDAGPGSGAASGTVVAAAAGGPGPGAGGVAAAGPAPAPPTGGSGGSGAGGSGSAREGWLFKWTNYIKGYQRRWFVLSNGLLSYYRSKAEMRHTCRGTINLATANITVEDSCNFIISNGGAQTYHLKASSEVERQRWVTALELAKAKAVKMLAESDESGDEESVSQTDKTELQNTLRTLSSKVEDLSTCNDLIAKHGTALQRSLSELESLKLPAESNEKIKQVNERATLFRITSNAMINACRDFLMLAQTHSKKWQKSLQYERDQRIRLEETLEQLAKQHNHLERAFRGATVLPANTPGNVGSGKDQCCSGKGDMSDEDDENEFFDAPEIITMPENLGHKRTGSNISGASSDISLDEQYKHQLEETKKEKRTRIPYKPNYSLNLWSIMKNCIGKELSKIPMPVNFNEPLSMLQRLTEDLEYHELLDRAAKCENSLEQLCYVAAFTVSSYSTTVFRTSKPFNPLLGETFELDRLEENGYRSLCEQVSHHPPAAAHHAESKNGWTLRQEIKITSKFRGKYLSIMPLGTIHCIFHATGHHYTWKKVTTTVHNIIVGKLWIDQSGEIDIVNHKTGDKCNLKFVPYSYFSRDVARKVTGEVTDPSGKVHFALLGTWDEKMECFKVQPVIGENGGDARQRGHEAEESRVMLWKRNPLPKNAENMYYFSELALTLNAWESGTAPTDSRLRPDQRLMENGRWDEANAEKQRLEEKQRLSRKKREAEAMKATEDGTPYDPYKALWFERKKDPVTKELTHIYRGEYWECKEKQDWSSCPDIF
